Results as given in US12458818B2, “Anti-trophoblast cell surface antigen 2 (TROP2) antibodies and antibody drug conjugates comprising same” (CSPC MEGALITH BIOPHARMACEUTICAL CO., LTD., priority 2019, dated 2025).
Where a chain is given by its changes, count along the chain named.

T1: human TROP2 (Homo sapiens, UniProt P09758)
T1 sequence (P09758 27-323): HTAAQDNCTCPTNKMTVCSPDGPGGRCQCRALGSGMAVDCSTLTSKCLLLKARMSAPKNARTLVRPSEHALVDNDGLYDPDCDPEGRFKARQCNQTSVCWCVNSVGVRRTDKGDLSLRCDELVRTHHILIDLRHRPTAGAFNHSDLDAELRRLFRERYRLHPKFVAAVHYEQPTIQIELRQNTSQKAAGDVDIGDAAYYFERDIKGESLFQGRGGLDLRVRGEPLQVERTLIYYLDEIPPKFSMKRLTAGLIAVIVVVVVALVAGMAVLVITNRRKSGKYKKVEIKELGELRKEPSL

B1: HC3/LC5 (antibody)
heavy: QVQLVQSGAEVKKPGASVKVSCKASGYTFTDYSINWVRQAPGQRLEWMGVISTYYGDASYNQKFKGRVTITRDTSASTAYMELSSLRSEDTAVYYCARYGDGYNQFDYWGQGTLVTVSS[human IgG1 constant region cut from this listing]
light: DIQMTQSPSSLSASVGDRVTITCRVSESVDSYGNNFMHWYQQKPGKAPKLLIYRASNLESGVPSRFSGSGSGTDFTFTISSLQPEDIATYYCQQSYEDPYTFGGGTKLEIKRTVAAPSVFIFPPSDEQLKSGTASVVCLLNNFYPREAKVQWKVDNALQSGNSQESVTEQDSKDSTYSLSSTLTLSKADYEKHKVYACEVTHQGLSSPVTKSFNRGEC
B2: HC1/LC3: humanized anti-TROP2 antibody, heavy chain SEQ ID NO: 52, light chain SEQ ID NO: 60 (antibody)
heavy: B1 heavy with R44G, I70M, R72T, A76T, S84R, E89D, L114M
light: DIVMTQSPLSLPVTPGEPASISCRVSESVDSYGNNFMHWYLQKPGQSPQLLIYRASNLESGVPDRFSGSGSGTDFTLKISRVEAEDVGVYYCQQSYEDPYTFGGGTKVEIKRTVAAPSVFIFPPSDEQLKSGTASVVCLLNNFYPREAKVQWKVDNALQSGNSQESVTEQDSKDSTYSLSSTLTLSKADYEKHKVYACEVTHQGLSSPVTKSFNRGEC
B3: HC3/LC4: humanized anti-TROP2 antibody, heavy chain SEQ ID NO: 54, light chain SEQ ID NO: 61 (antibody)
heavy: B1 heavy
light: EIVLTQSPATLSLSPGERATLSCRVSESVDSYGNNFMHWYQQKPGQAPRLLIYRASNLESGIPARFSGSGSGTDFTLTISSLEPEDFAVYYCQQSYEDPYTFGGGTKVEIKRTVAAPSVFIFPPSDEQLKSGTASVVCLLNNFYPREAKVQWKVDNALQSGNSQESVTEQDSKDSTYSLSSTLTLSKADYEKHKVYACEVTHQGLSSPVTKSFNRGEC
B4: HC5/LC1 (antibody)
heavy: EVQLVQSGAEVKKPGESLKISCKGSGYTFTDYSINWVRQMPGKGLEWMGVISTYYGDASYNQKFKGQVTISADKSISTAYLQWSSLKASDTAMYYCARYGDGYNQFDYWGQGTLVTVSS[human IgG1 constant region cut from this listing]
light: DIVMTQSPDSLAVSLGERATINCRVSESVDSYGNNFMHWYQQKPGQPPKLLIYRASNLESGVPDRFSGSGSGTDFTLTISSLQAEDVAVYYCQQSYEDPYTFGQGTKLEIKRTVAAPSVFIFPPSDEQLKSGTASVVCLLNNFYPREAKVQWKVDNALQSGNSQESVTEQDSKDSTYSLSSTLTLSKADYEKHKVYACEVTHQGLSSPVTKSFNRGEC
B5: HC5/LC3: humanized anti-TROP2 antibody, heavy chain SEQ ID NO: 56, light chain SEQ ID NO: 60 (antibody)
heavy: B4 heavy
light: B2 light

What follows are molecules tested against T1, human TROP2 (assay: SPR affinity ranking of humanized antibodies (Table 8C)).
Type: binding

B1 and B2 are within 1.5-fold of each other in “Ka” value: 1.32e+06 M⁻¹ s⁻¹ for the first, 1.62e+06 M⁻¹ s⁻¹ for the second.

B3 and B4 are within 1.5-fold of each other in “Ka” value: 1.37e+06 M⁻¹ s⁻¹ for the first, 1.6e+06 M⁻¹ s⁻¹ for the second.

B5 was tested, and the “Ka” value was 1.46e+06 M⁻¹ s⁻¹.

B1 and B2 are within 1.5-fold of each other in “Kd (1/s)” value: 0.000151 s⁻¹ for the first, 0.000196 s⁻¹ for the second.

B3 and B4 are within 1.5-fold of each other in “Kd (1/s)” value: 0.000192 s⁻¹ for the first, 0.000235 s⁻¹ for the second.

With B5 the “Kd (1/s)” value was 0.000266 s⁻¹.

First: B1
Second: B2
The “Rmax (RU)” value of the first is higher: 62.8 RU for the first, 35.1 RU for the second.

Going from B3 to B4, the “Rmax (RU)” value rises from 37.2 RU to 44.2 RU.

In the case of B5, the “Rmax (RU)” value is reported as 34.3 RU.
